Reference: patent US20260008835A1 (SHANGHAI REGENELEAD THERAPIES, published 2026)

Molecular target: T1, Human VEGF-C protein (human, UniProt P49767 112-227, limits assumed)
T1 construct: Treated as one molecule; also called VEFG-C
T1 sequence (looked up): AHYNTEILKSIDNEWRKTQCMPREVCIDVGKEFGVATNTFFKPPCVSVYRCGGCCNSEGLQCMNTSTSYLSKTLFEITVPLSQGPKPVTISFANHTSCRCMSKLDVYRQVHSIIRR
Experiment: SPR (Biacore T200), binder captured on Protein A chip, VEGF as analyte, multi-cycle

| Binder | Kd [nM] |
| --- | --- |
| PR1163 (heavy chain H: R2D2 (C162V)-R2D3-Fc-linker-VH-CH1; light chain L: VL-CL) (Fc fusion) heavy: SPFIASVSDQHGVVYITENKNKTVVIPCLGSISNLNVSLVARYPEKRFVPDGNRISWDSKKGFTIPSYMISYAGMVFCEAKINDESYQSIMYIVVVVGYRIYDVVLSPSHGIELSVGEKLVLNCTARTELNVGIDFNWEYPSSKHQHKKLVNRDLKTQSGSEMKKFLSTLTIDGVTRSDQGLYTCAASSGLMTKKNSTFVRVHEK[human IgG1 Fc with changes not printed]GGGGSGGGGSGGGGSGGGGSEVQLVESGGGLVQPGGSLRLSCAASGYTFTNYGMNWVRQAPGKGLEWVGWINTYTGEPTYAADFKRRFTFSLDTSKSTAYLQMNSLRAEDTAVYYCAKYPHYYGSSHWYFDVWGQGTLVTVSSASTKGPSVFPLAPSSKSTSGGTAALGCLVKDYFPEPVTVSWNSGALTSGVHTFPAVLQSSGLYSLSSVVTVPSSSLGTQTYICNVNHKPSNTKVDKKVEPKSC light: DIQMTQSPSSLSASVGDRVTITCSASQDISNYLNWYQQKPGKAPKVLIYFTSSLHSGVPSRFSGSGSGTDFTLTISSLQPEDFATYYCQQYSTVPWTFGQGTKVEIKRTVAAPSVFIFPPSDEQLKSGTASVVCLLNNFYPREAKVQWKVDNALQSGNSQESVTEQDSKDSTYSLSSTLTLSKADYEKHKVYACEVTHQGLSSPVTKSFNRGEC | 0.0134 |
| PR1186 (heavy chain H: R1D2-R2D3-R2D2 (C162V/Y221S/R222K)-R2D3 (N274F/S283T)-Fc-linker-VH-CH1; light chain L: VL-CL) (Fc fusion) heavy: SPFIASVSDQHGVVYITENKNKTVVIPCLGSISNLNVSLVARYPEKRFVPDGNRISWDSKKGFTIPSYMISYAGMVFCEAKINDESYQSIMYIVVVVGSKIYDVVLSPSHGIELSVGEKLVLNCTARTELNVGIDFNWEYPSSKHQHKKLVFRDLKTQSGTEMKKFLSTLTIDGVTRSDQGLYTCAASSGLMTKKNSTFVRVHEK[human IgG1 Fc with changes not printed]GGGGSGGGGSGGGGSGGGGSEVQLVESGGGLVQPGGSLRLSCAASGYTFTNYGMNWVRQAPGKGLEWVGWINTYTGEPTYAADFKRRFTFSLDTSKSTAYLQMNSLRAEDTAVYYCAKYPHYYGSSHWYFDVWGQGTLVTVSSASTKGPSVFPLAPSSKSTSGGTAALGCLVKDYFPEPVTVSWNSGALTSGVHTFPAVLQSSGLYSLSSVVTVPSSSLGTQTYICNVNHKPSNTKVDKKVEPKSC light: DIQMTQSPSSLSASVGDRVTITCSASQDISNYLNWYQQKPGKAPKVLIYFTSSLHSGVPSRFSGSGSGTDFTLTISSLQPEDFATYYCQQYSTVPWTFGQGTKVEIKRTVAAPSVFIFPPSDEQLKSGTASVVCLLNNFYPREAKVQWKVDNALQSGNSQESVTEQDSKDSTYSLSSTLTLSKADYEKHKVYACEVTHQGLSSPVTKSFNRGEC | 0.0123 |
